# Experimental data published in the supplement of paper PMC10126150.
# Values marked as one replicate rest on one cluster of the flow cell; about a third of the high ones do not repeat.
# Test system: ATP
# Assay: switch fluorescence ratio, 500 uM ATP over buffer (Cy3 cluster intensity, sum of 5 cycles each) (fold (ratio)); higher = stronger signal-on switching upon ATP binding; sequences stand for … in TCGTCGGCAGCGTCAGATGTGTATAAGAGACAGTTTTTTTTTTTTTTTTTTTTTTTTT…TC
# Conditions: aptamer strand: ATP DNA aptamer (quencher-CACCTGGGGGAGTATTGCGGAGGAAGG + anchor), 100 nM annealed; ATP concentration: 500 uM; one replicate
# In short: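 Between each of five buffer/ATP cycles, the flow-cell was stripped with NaOH and re-annealed. Each cycle imaged Cy3-labelled switching-strand clusters, annealed to 100 nM quencher-labelled ATP aptamer on a modified Illumina MiSeq flow-cell, first in selection buffer and then after 15 min with 500 uM ATP at 22 °C. The fluorescence ratio is summed target-cycle over summed buffer-cycle Cy3 intensity per cluster, averaged per switch-domain sequence, with clusters outside 100-1000 RFU excluded.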
# 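Further: ATP exposure 15 min at 22 °C before imaging.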
row,Sequence,switch fluorescence ratio
1,GCTCGCACTC,2.91
2,GAATATTGAC,1.05
3,CGTGACACGA,0.962
4,AAGTAACTCA,1.02
5,TTGGGTTA,1.07
6,AGGGAAAGAT,0.984
7,GGCCACCTAA,1.02
8,TGAGCGTCTC,1
9,GTTTGACAC,0.999
10,CGGAAAACTA,1.08
11,GTCAAAAAGA,0.982
12,ATATTTAGGG,0.929
13,TAGACGACTA,1.04
14,AAGGCTACTC,1.16
15,ATGTTGGACC,0.957
16,GATCTTTTAT,0.99
17,TTTTACGGCT,0.957
18,GATTCAACCC,1.03
19,CCCCGTCGCC,1.08
20,CTGGCCTTGC,1.12
21,ATGGACTTTT,0.994
22,GGATTGAAA,0.971
23,TGAGTTCAGA,0.968

row,Sequence,switch fluorescence ratio
1,GAAGTAGTCT,0.972
2,ACTTTGTGTT,1.02
3,GGGGGCATA,0.973
4,CTCTTCACCT,1.13
5,ATGGCGAT,1.01
6,GGACTTAGGT,1.02
7,CATGAAACTA,1.03
8,AGACCAACAG,1.01
9,CATACTGATA,1.02
10,ACTGTCTGAC,1.06
11,TAATGTCCGG,1.01
12,ACATTTAAAC,1.02
13,GCAGGGAGGA,0.963
14,TTCGTGAACT,0.978
15,AGGTCTCTGA,1
16,ACCCTAATGT,0.999
17,GTAGACTTTG,1
18,GGGGCTATGA,0.974
19,AGATTCGAGA,1.02
20,ATGACTGATT,0.987
21,GACTTGGCTA,1.04
22,TAAACAAATT,0.984
23,CGGGACCT,1.23

row,Sequence,switch fluorescence ratio
1,ACAGATTACC,1.28
2,AATGAGGGGC,1.01
3,AATAACATAC,1.43
4,AGGCGTCGTT,1.01
5,AGGCTTAAA,0.966
6,CTCACATAGT,1.02
7,CGCATCTCTT,1.18
8,TTGCCTGTCG,0.946
9,ATGTAGACAA,1.05
10,AGTTTATTGT,1.02
11,CGTTTAATT,0.996
12,CAGTATTGCC,0.975
13,GCATCAGGTC,1.02
14,AAACAGTTTC,0.991
15,TGTCGGCTT,1.08
16,CATGTGATCA,1.03
17,TTAAGAATAA,0.998
18,CGTTGGCATT,1.08
19,CCAAATTCAT,0.992
20,AACAGGATAG,1
21,GCGACCCGGT,1.18
22,CCCGGCACAA,1.68
23,CCACTTTTGG,1.01

row,Sequence,switch fluorescence ratio
1,AGCTAAAAAT,1.02
2,TTTGGCATCT,0.993
3,ATGGGTGGGC,1.01
4,TACGGTATTT,1.16
5,CCCATATTAT,0.963
6,AAGGTAGCGG,0.968
7,ATAAGCGCTG,1.08
8,CCGTGTTGGA,1.04
9,CGTCGTCATC,1
10,TCGCCCAGAA,0.982
11,TTGTCGTTTG,0.976
12,TTTATCGCTT,1.12
13,TTGTGGAACA,0.995
14,GACTATGCCA,1.01
15,ACTCTTGGTG,1.12
16,TTAGTAGAAA,1
17,CCCCTAAGCG,1.08
18,CTAGGCCGCT,1.01
19,TGCGTCGTTC,1.01
20,CTTCTGTGTT,1.01
21,TTTTCACCCC,1.13
22,TAAAGTCCCG,0.978
23,TGTGCATGTT,0.989

row,Sequence,switch fluorescence ratio
1,AAGGGAATAT,0.941
2,TCTTAATAAT,0.99
3,TGACTATCTC,1.08
4,CAGAGCAGG,1.02
5,GCGTAGATTG,1
6,GGTATTCTGG,0.912
7,CTCCAAAATT,2.07
8,TATAAATGCT,0.982
9,GGCGGAATAG,1.89
10,TTTTATACAT,1.08
11,CGACAACGG,0.997
12,TTACGGCGAT,1.08
13,TTATATCCAC,1.11
14,CTGAAAGTGG,0.966
15,TACGCAGCTC,3.96
16,TGCTAGTCAT,1
17,GCATACTTCG,1.19
18,CTAGGCCGTT,0.999
19,TTTGAAAAAG,0.973
20,GTGTTAGTAG,1
21,GTCAACATCG,0.987
22,ATTTTGAGAG,0.997
23,AATGGGTCCT,1.03

row,Sequence,switch fluorescence ratio
1,CCTGTAGGC,0.972
2,TGAATGCACT,1.06
3,GGTCTTTACG,0.979
4,GATGGCGCGA,0.945
5,CGTTTAAGGT,0.969
6,ACAGGCACGT,1.24
7,TATATCTTAT,1.01
8,GCCAGGTGTT,3.53
9,CAGGTGTTGT,1.5
10,TGATATCATA,1.07
11,TCCATCGGCC,1.08
12,CATCTAG,0.939
13,ACCCCTTCAT,1.12
14,CGAAGGATTC,1.1
15,CCCATCCCAG,1.14
16,GGACTCGGCG,0.926
17,ACACCCATAT,1.11
18,TCTGAAATAT,1.04
19,CGATTTTCAA,0.995
20,GTGTTACCAG,1.05
21,GCCAGCGTTT,1.01
22,CGGTTGTGGA,1.01
23,ACAATGCGGC,1.02

row,Sequence,switch fluorescence ratio
1,GCCAAATGTT,0.988
2,ACAGGACGCT,1.05
3,GTCAACTAGC,1.01
4,ACACGACACA,1.64
5,TTTAGCCAAC,1.08
6,TGCTGTTCGG,1.01
7,ATATGCGGCC,0.997
8,TTCGTGGATG,1.02
9,GCGGGTCCAA,0.976
10,TGAGTAATGG,1.1
11,CAATGATGAG,1.02
12,CACTTTGGCT,0.991
13,TTAAGCGGTA,1
14,AGCAGTGTTG,1.01
15,ATGTTGGCTA,1.04
16,TTCTTGTTGT,0.974
17,AAATAATATG,1
18,AGGATTTCGC,1.03
19,CTTGCCACGC,1.08
